Hit rate of the full screen: of about 45,000 compounds, about 65 (0.1%) were called active. The call rests on the fitted dose curve; in most records, active means well fitted activation curve with a large enough effect; inconclusive means small, poorly fitted or top-dose-only effect; inactive means no such curve, though single readings can be large or run the other way. This is one part of the list.
Target: Galactocerebrosidase (Homo sapiens) (UniProt P54803)
Experiment: A Novel Cell-Based Assay to Identify Small Molecules for B -Galactocerebrosidase; further: 0% is about no effect; nearly all actives have a fitted effect of over 65% in size
Settings: 145M-Twi-hGALC-G270D cells (Twitcher mouse brain line with human GALC G270D), HMU-beta-Gal fluorescence, 48 h; series mostly up to 57.5 µM; activation: at the top concentration
How it was run: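 Mutant human GALC (G270D), stably expressed in a Twitcher mouse brain cell line lacking endogenous GALC, is measured in live-treated cells via 6-hexadecanoylamino-4-methylumbelliferyl-β-galactoside hydrolysis (0.1 mM final, pH 5.2) with fluorescent detection.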

UniProt P54803, sequence (P54803 whole entry, looked up): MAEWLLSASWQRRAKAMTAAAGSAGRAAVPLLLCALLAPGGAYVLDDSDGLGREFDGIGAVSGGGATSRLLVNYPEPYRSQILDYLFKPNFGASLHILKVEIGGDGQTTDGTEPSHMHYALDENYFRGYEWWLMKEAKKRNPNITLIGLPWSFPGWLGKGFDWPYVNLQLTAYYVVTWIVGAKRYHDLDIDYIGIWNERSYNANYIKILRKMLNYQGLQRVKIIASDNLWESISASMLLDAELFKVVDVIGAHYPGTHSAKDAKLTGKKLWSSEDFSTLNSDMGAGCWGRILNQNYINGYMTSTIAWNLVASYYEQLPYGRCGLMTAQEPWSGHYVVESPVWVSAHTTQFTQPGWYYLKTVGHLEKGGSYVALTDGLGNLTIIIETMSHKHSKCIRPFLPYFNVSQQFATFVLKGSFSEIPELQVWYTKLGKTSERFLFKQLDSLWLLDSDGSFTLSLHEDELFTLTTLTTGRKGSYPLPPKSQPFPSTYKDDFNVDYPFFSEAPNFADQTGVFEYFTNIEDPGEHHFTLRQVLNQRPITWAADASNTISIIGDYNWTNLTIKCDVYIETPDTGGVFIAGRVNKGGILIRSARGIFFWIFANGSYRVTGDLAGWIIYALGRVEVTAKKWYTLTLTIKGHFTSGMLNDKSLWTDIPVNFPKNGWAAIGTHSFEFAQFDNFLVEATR

| Compound | activation |
| --- | --- |
| COc1ccccc1NS(=O)(=O)c1cn(C)c(C)n1 | inactive: 5.49% |
| Cc1ccc(C)c(N2CCN(C(=O)Cn3nc(C)c4sc5ccccc5c4c3=O)CC2)c1 | inactive: -10.7% |
| COc1ccccc1N(CC(=O)Nc1ccccc1C(F)(F)F)S(=O)(=O)c1ccc(C)cc1 | inactive: -12.4% |
| COc1ccc(OC)c(NC(=O)C(C)n2c(=O)c(-c3ccccc3NC(C)=O)nc3ccccc32)c1 (configuration not stated) | inactive: -21.5% |
| O=C(CC1Sc2ccccc2NC1=O)Nc1cccc(C(F)(F)F)c1 (configuration not stated) | inactive: -35.1% |
| COc1ccc(-c2nc(CSCC(=O)NCCC(C)C)c(C)o2)cc1OC | inactive: -7.05% |
| CCOc1ccc(NC(=O)CSc2nc3ccsc3c(=O)n2CCC(C)C)cc1 | inactive: -4.12% |
| COc1ccc(OC)c(NC(=O)C2CCN(S(=O)(=O)c3ccc4c(c3)CC(C)N4C(C)=O)CC2)c1 (configuration not stated) | inactive: -14.5% |
| Cc1ccc(NC(=O)C2CCN(S(=O)(=O)c3ccc4c(c3)CCCC(=O)N4)CC2)cc1N(C)C | inactive: -16% |
| Cc1cc(Nc2cccc(Cl)c2)nc2ccc(NC(=O)COc3ccc(Cl)cc3)cc12 | inactive: -12.8% |
| COc1ccc(OC)c(CNC(=O)NCc2noc3ccc(C)cc23)c1 | inactive: -13.4% |
| O=C(CN1C(=O)c2cccnc2Sc2ccccc21)Nc1cc(F)ccc1F | inactive: -15.9% |
| Cc1ccc(-n2nc(C)c3c(C(=O)NCCc4ccc(S(N)(=O)=O)cc4)cc(C)nc32)cc1 | inactive: -14.2% |
| CCC1CN(C(=O)N2CCC(C(=O)NCc3cccc(F)c3)CC2)c2cc(C)ccc2O1 (configuration not stated) | inactive: -19% |
| CC(C)c1ccc(NC(=O)c2cc3c(=O)[nH]c4ccccc4c3n2C)cc1 | inactive: -27.5% |
| O=C(CSc1cn(CC(=O)N2CCCCC2)c2ccccc12)NCc1ccccc1Cl | inactive: -14.9% |
| CCN1C(=O)c2ccccc2S(=O)(=O)c2ccc(C(=O)NCc3ccccc3OC)cc21 | inactive: -11.2% |
| Cc1ccc(-n2nc(C)c3c(C(F)(F)F)cc(-c4cccnc4)nc32)cc1C | inactive: -2.14% |
| Cc1ccc2oc(-c3ccc(NC(=O)c4oc5ccc(Cl)cc5c4C)cc3)nc2c1 | inactive: 1.18% |
| COc1ccc(NC(=O)Nc2cc(C(=O)NCc3ccc(C)cc3)ccc2N2CCCC2)cc1 | inactive: -2.13% |
| CCCCN(C)CCCNC(=O)c1cn(CC)c2ccc(S(=O)(=O)N3CCc4ccccc4C3)cc2c1=O | inactive: -16.4% |
| COc1ccccc1CNC(=O)c1cc(S(=O)(=O)N2CCCC(C)C2)cn1C (configuration not stated) | inactive: 3.26% |
| CCOc1ccc(-c2cn3nc(CC(C)C)sc3n2)cc1 | inactive: 13.8% |
| Cc1cccc(NC(=O)Cn2c(SCC(=O)NCc3ccccc3)nc3ccccc32)c1C | inactive: -5.82% |
| O=C(c1cnn(-c2ccc(F)cc2)c1-n1cccc1)N1CCN(c2ccccc2)CC1 | inactive: -18% |

| Compound | activation |
| --- | --- |
| COc1ccc(CNC(=O)C2(c3cccs3)CCOCC2)cc1 | inactive: -12.8% |
| Cc1ccc(NC(=O)c2ccc(C)c(S(=O)(=O)N3CCCCCC3)c2)cc1 | inactive: -40.1% |
| CCOC(=O)c1ccc(N=C2SC(C(=O)Nc3ccccc3)CC(=O)N2C)cc1 (configuration not stated) | inactive: 4.42% |
| CCN(CC)c1ccc(C2C(C(N)=O)=C(C)Nc3nc(SCc4ccccc4Cl)nn32)cc1 (configuration not stated) | inactive: 9.41% |
| CCc1ccc(CCOc2ccc(CC3SC(=O)NC3=O)cc2)nc1 (configuration not stated) | inactive: -13.6% |
| COc1ccc(N2CCN(CC(O)COc3c(OC)cccc3OC)CC2)cc1 (configuration not stated) | inactive: -38.4% |
| CCOc1ccc(NC(=O)c2c(NCc3cccs3)sc3c2CCC(C)C3)cc1 (configuration not stated) | inactive: -9.94% |
| CCCCc1nn2c(=O)cc(COC(=O)CNC(=O)COc3ccc(C)cc3)nc2s1 | inactive: -1.39% |
| Cc1ccccc1-c1nc(CN2CCC(C(=O)NC(C)C)CC2)c(C)o1 | inactive: -9.47% |
| CCN(CC)S(=O)(=O)c1cccc(C(=O)Nc2ccccc2C(=O)Nc2ccc(OC)cc2)c1 | inactive: -10.9% |
| CCOC(=O)C1=C(CN2CCN(c3ccc(C)cc3C)CC2)NC(=O)NC1c1ccc(OC)cc1 (configuration not stated) | inactive: -16.6% |
| COc1ccc(-c2nc3sc(CCNC(=O)C(=O)Nc4ccccc4C#N)c(C)n3n2)cc1 | inactive: -8.2% |
| CCOC(=O)c1ccccc1NC(=O)c1c(C)oc2ncnc(N3CCOCC3)c12 | inactive: 6.09% |
| COc1cccc(-n2c(=O)c3c(C)c(C)sc3n(Cc3ccccc3C#N)c2=O)c1 | inactive: -14.2% |
| Cc1cccc(-n2c(SCC(=O)Nc3ccc(C)c(C)c3)nc3n[nH]c(C)c3c2=N)c1 | inactive: -3.72% |
| CCOc1ccccc1NC(=O)C1=C(C)Nc2ncnn2C1c1ccco1 (configuration not stated) | inactive: -20% |
| COc1cc(NC(=O)c2nn(C)c3c2COc2ccccc2-3)cc(OC)c1OC | inactive: -6.95% |
| O=C(CCn1c(=O)c2ccccc2n(CC(=O)Nc2ccc(F)cc2)c1=O)NCCc1ccccc1 | inactive: -6.05% |
| CC(C)c1cc(-c2nc(-c3ccc(Cl)cc3)no2)n[nH]1 | inactive: -20.4% |
| CCc1cnc2c(c1SC(C(C)=O)C(=O)N(C)C)c(=O)n(C)c(=O)n2C (configuration not stated) | inactive: -9.67% |
| COc1ccc(CCNC(=O)c2ccc(Cn3c(SCc4ccccc4)nc4cccnc43)cc2)cc1 | inactive: -12.8% |
| COc1cccc(-c2nn(C)c3sc(C(=O)NCc4ccc(OC)cc4OC)cc23)c1 | inactive: -11% |
| Cc1ccc(CNC(=O)c2c(Nc3ccccc3C)sc(C(=O)c3ccc(F)cc3)c2N)cc1 | inactive: -6.59% |
| COc1ccc(CC(=O)NCC(c2cccs2)S(=O)(=O)c2ccc(F)cc2)cc1 (configuration not stated) | inactive: -14.3% |
| Cc1ccc(C(=O)N(Cc2ccco2)c2ccccn2)cc1 | inactive: -19.6% |

| Compound | activation |
| --- | --- |
| O=C(CN1CCN(Cc2ccccc2F)C1=O)NCc1ccccc1 | inactive: -7.97% |
| COc1ccccc1NC(=O)c1cnn(-c2ccccc2)c1-n1cccc1 | inactive: 6.08% |
| CC(C)c1ccc(NC(=O)c2ccc(CN3CC(=O)N4CCCCC4C3=O)cc2)cc1 (configuration not stated) | inactive: -12.4% |
| CCc1ccc(C2CC(=O)Nc3c2c(=O)nc2c(C)cccn32)cc1 (configuration not stated) | inactive: -13.9% |
| Cc1cccc(NC(=O)Cn2c(=O)n(Cc3ccccc3)c(=O)c3oc4ccccc4c32)c1C | inactive: -4.23% |
| CCOc1ccc(C2C(C(N)=O)=C(C)Nc3nc(SCc4ccccc4F)nn32)cc1 (configuration not stated) | inactive: -19.4% |
| COc1ccccc1C(=O)Nc1ccc(C(=O)OCc2cc(=O)n3c4c(sc3n2)CCCC4)cc1 | inactive: -21.3% |
| CSc1ccc(CCNC(=O)c2csc3c2CCCCC3)cc1 | inactive: -4.11% |
| O=C(O)CCn1ccc2cc(S(=O)(=O)N3CCCCCC3)ccc21 | inactive: -10.7% |
| Cc1cc(C)c(NC(=O)C(=O)NCCc2csc(-c3ccc(F)cc3)n2)c(C)c1 | inactive: -38.4% |
| CN(C)c1ccc(CNC(=O)c2ccc3nc(Cc4ccccc4)oc3c2)cc1 | inactive: -39.2% |
| CCCCOc1ccc(C(=O)Nc2cccc(-c3nc4ccccc4o3)c2C)cc1 | inactive: -14.1% |
| Cc1nc2nc(NCc3ccc(Br)cc3)[nH]n2c(=O)c1Cc1ccccc1 | inactive: -19% |
| Cc1cccn2c(=O)c(C(=O)N3CCN(c4ccccc4)CC3)cnc12 | inactive: -3.6% |
| COc1cc(Nc2nc(-c3ccc(OC)c(OC)c3)nc3ccccc23)cc(OC)c1 | inactive: -11.9% |
| Cc1ccc(-n2c(=O)c3oc4ccccc4c3n(Cc3cccc(F)c3)c2=O)cc1C | inactive: 10.1% |
| Cc1ccc(C(=O)c2c(N)c(C(=O)Nc3cccc(C(F)(F)F)c3)c3ccccn23)cc1 | inactive: -11.3% |
| COc1ccccc1Nc1c2c(nc3ccc(NC(=O)c4ccc(N(C)C)cc4)cc13)CCCC2 | inactive: -15.1% |
| COc1cccc(C2C(C(N)=O)=C(C)Nc3ncnn32)c1 (configuration not stated) | inactive: -6.4% |
| COc1ccc(OC)c(NC(=O)C2=C(C)C(=O)OC23CCN(C(C)C)CC3)c1 | inactive: -0.549% |
| Fc1ccc(N2CCN(c3ncnc4onc(-c5ccc(Cl)cc5)c34)CC2)cc1 | inactive: -10.8% |
| O=C(CSc1nc2c(oc3ccccc32)c(=O)n1-c1ccccc1)Nc1ccc(F)c(Cl)c1 | inactive: -11.6% |
| CCCCC(CC)CNC(=O)CCCCCn1c(=O)[nH]c2ccsc2c1=O (configuration not stated) | inactive: -12.2% |
| O=C(c1ccc2c(c1)N(Cc1ccc(Cl)cc1)C(=O)c1ccccc1S2(=O)=O)N1CCOCC1 | inactive: -8.7% |
| CC(C)c1ccc(NC(=O)c2ccc(=O)n(Cc3ccccc3)c2)cc1 | inactive: -34.6% |

| Compound | activation |
| --- | --- |
| CCc1ccc(-n2c(=O)c3ccccc3n(Cc3ccccc3C#N)c2=O)cc1 | inactive: -12.7% |
| CCOc1ccccc1NC(=O)Cn1c(=O)n(Cc2ccco2)c(=O)c2sc3ccccc3c21 | inactive: -20.3% |
| Cc1ccc(N(CC2=NCCN2)c2cccc(O)c2)cc1 | inactive: -17.1% |
| CCOC(=O)c1c(NC(C)=O)c2c3c(sc2n1Cc1cc(C)ccc1C)CCCC3 | inactive: 0.0104% |
| Cc1oc2ncn(CC(C)C)c(=O)c2c1C(=O)NCCCN(C)Cc1ccccc1 | inactive: -4.32% |
| O=C(Nc1cccc(C(F)(F)F)c1)C1CCCN(S(=O)(=O)c2cccc3nonc23)C1 (configuration not stated) | inactive: -2.59% |
| CCn1c(C)c(C)c2cc(C(=O)NCCc3cc(OC)ccc3OC)ccc21 | inactive: 3.5% |
| CCOC(=O)Cn1c(=O)oc2cc(S(=O)(=O)Nc3ccccc3F)ccc21 | inactive: -12.4% |
| COc1cc(-c2nnc(SCCOc3ccccc3)o2)cc(OC)c1OC | inactive: -7.35% |
| CCOC(=O)c1c(SCC(=O)Nc2cccc(C)c2C)nc(=O)[nH]c1C | inactive: -5.45% |
| CC(C)(C)c1ccc(C(=O)Nc2nnc3n2CCS3)cc1 | inactive: -9.63% |
| Cc1oc2c(C)c3oc(=O)c(CCC(=O)N4CCCCC4)c(C)c3cc2c1C | inactive: 6.7% |
| Cc1cc2oc(C(=O)Nc3ccc(S(=O)(=O)N(C)c4ccccc4)cc3)cc(=O)c2cc1C | inactive: 19.7% |
| O=C(Cn1cc(S(=O)(=O)Cc2ccccc2Cl)c2ccccc21)Nc1ccc(F)cc1F | inactive: -14% |
| Cc1ccc(Cn2c(CO)cnc2SCC(=O)Nc2cccc(F)c2)cc1 | inactive: -5.92% |
| COc1ccc(-c2noc(-c3ccc(NCCc4ccccc4)c([N+](=O)[O-])c3)n2)cc1 | inactive: -14.6% |
| CC(=O)N1CCc2c(sc(NC(=O)CSc3ccc(F)cc3)c2-c2nc3ccccc3s2)C1 | inactive: -0.262% |
| CCOc1ccc(S(=O)(=O)N2CCC(n3c(C)nc4cccnc43)CC2)cc1 | inactive: -20.8% |
| O=C(Cn1ncc2c(Cl)cccc21)NCc1cccc(F)c1 | inactive: -10.1% |
| COC(=O)c1ccc2c(c1)N(Cc1cc(C)ccc1C)C(=O)c1ccccc1S2(=O)=O | inactive: -9.21% |
| CCOc1ccc(CNC(=O)c2ccc3c(c2)N(Cc2ccccc2)CCS3)cc1 | inactive: -17.1% |
| Cc1cc(C)c(NC(=O)C2CCCN(C(=O)c3cnn(-c4ccccc4)c3-n3cccc3)C2)c(C)c1 (configuration not stated) | inactive: -9.38% |

— PubChem BioAssay AID1159614 (National Center for Advancing Translational Sciences (NCATS), 2016)
